Reference: PubChem BioAssay AID360 (National Center for Advancing Translational Sciences (NCATS), 2006)
About 550 (1.1%) of roughly 48,000 compounds were called active. Roughly 4% stayed inconclusive and do not appear here. Rule as the data show it: active = potency below about 15 µM; inconclusive = mostly about 16 µM to 33 µM; inactive = weaker than that. The list shows a part of the results.

Biological target: Lysosomal acid glucosylceramidase (Homo sapiens) (UniProt P04062)
Experiment: Glucocerebrosidase;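 also: the screen sought inhibitors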
Conditions: purified enzyme, resorufin glucoside fluorescence (screen aimed at inhibitors), 20 min
Summary of the method: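 Normal human glucocerebrosidase (0.2 nM final) was assayed with resorufin β-D-glucopyranoside (30 uM final) in 50mM citric acid/KH2PO4, 10mM sodium taurocholate, 0.01% tween-20, pH 5.9. Compounds were titrated; fluorescence (Ex 548, Em 600) read after 20 min at RT.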
Potency is read from the fitted curve at half-maximal effect.

Chain of UniProt P04062 (P04062 whole entry, looked up): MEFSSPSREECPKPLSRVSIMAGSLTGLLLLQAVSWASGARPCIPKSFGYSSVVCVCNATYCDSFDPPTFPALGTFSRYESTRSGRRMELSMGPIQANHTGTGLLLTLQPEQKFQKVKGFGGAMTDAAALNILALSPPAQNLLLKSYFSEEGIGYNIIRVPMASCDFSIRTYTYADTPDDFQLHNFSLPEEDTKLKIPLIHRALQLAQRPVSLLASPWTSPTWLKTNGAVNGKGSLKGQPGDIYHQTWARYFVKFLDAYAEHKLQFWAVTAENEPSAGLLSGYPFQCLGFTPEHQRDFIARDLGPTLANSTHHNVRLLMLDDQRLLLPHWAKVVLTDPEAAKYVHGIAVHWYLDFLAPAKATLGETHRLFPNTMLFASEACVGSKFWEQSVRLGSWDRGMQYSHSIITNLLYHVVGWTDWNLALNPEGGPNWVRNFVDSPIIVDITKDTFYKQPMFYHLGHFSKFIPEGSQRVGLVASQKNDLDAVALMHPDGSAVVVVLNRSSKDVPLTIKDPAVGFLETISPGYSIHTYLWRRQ

Potency, inactive:
Cc1cc2c(ccc3c2no[n+]3[O-])nn1 > 76.9 µM
Cc1cc(C)c(C(N)=O)c(Nc2cccc(Cl)c2C)n1 > 76.9 µM
O=C(c1ccco1)N1CCN(C(=O)c2ccc(COc3ccc(F)cc3)o2)CC1 > 76.9 µM
Brc1c(CSc2nncn2-c2ccccc2)nc2sccn12 > 76.9 µM
Cc1cc(C(=O)OCc2nc3ccccc3s2)c(C)o1 > 76.9 µM
Cn1c(=O)[nH]c(=O)c2c1nc(NCCCn1ccnc1)n2Cc1ccccc1 > 76.9 µM
Cc1cc(C(=O)O)cc(S(=O)(=O)N2CCOCC2)c1C > 76.9 µM
O=C(O)c1cccc(Nc2nc(N3CCOCC3)nc(N3CCOCC3)n2)c1 > 76.9 µM
O=C(Cn1[nH]c(=O)c2ccccc2c1=O)N1CC=C(c2ccccc2)CC1 > 76.9 µM
Clc1cc(Cl)c2nc(N3CCCC3)sc2c1 > 76.9 µM
O=C(Oc1ccc2c(c1)OCC2=O)c1ccccc1 > 76.9 µM
CCOc1ccc2nc(SCC(=O)NC3CCS(=O)(=O)C3)[nH]c2c1 (centres undefined) > 76.9 µM
Nc1c(C(=O)NCCN2CCOCC2)c2nc3ccccc3nc2n1-c1ccccc1 > 76.9 µM
COCCSc1nnc(NS(=O)(=O)Cc2ccccc2)s1 > 76.9 µM
COc1ccc(Cc2nnn(CC(=O)O)n2)cc1 > 76.9 µM
CCC1(CC)Cc2ccccc2-c2nc(CN3CCOCC3)[nH]c(=O)c21 > 76.9 µM
CCn1ncc(Br)c1C(=O)Nc1cc(C)ccc1F > 76.9 µM
CCOc1ccccc1-n1c(SCC(N)=O)nnc1-c1ccc(O)cc1 > 76.9 µM
Cc1n[nH]c(=O)nc1N1CCc2ccccc2C1 > 76.9 µM
Cc1cccc(N(C2C=CS(=O)(=O)C2)S(=O)(=O)c2ccccc2)c1 (centres undefined) > 76.9 µM
CCOC(=O)c1cccc(N2C(=O)C3C(C(=O)NC4CC4)C4(C)C=CC3(O4)C2C(=O)NC(C)(C)C)c1 (centres undefined) > 76.9 µM
COc1ccccc1-n1c(CNC(=O)c2ccco2)nnc1SCC(=O)Nc1ccc(F)cc1 > 76.9 µM
CN(Cc1ccccc1)S(=O)(=O)c1ccc(C(=O)Nc2nnc(C3CC3)o2)cc1
O=C(Nc1ccc(-c2noc(CCc3ccccc3)n2)cc1)c1ccco1 > 76.9 µM
COC(=O)c1cccc(NC(=O)CN2CCC(NC(=O)c3cc(OC)c(OC)c(OC)c3)CC2)c1 > 76.9 µM
COc1ccc(CN2C(=O)C3C4C=CC(C4)C3C2=O)cc1 (centres undefined) > 76.9 µM
CCN(CC)CCCn1c(=S)[nH]c2cc(Cl)ccc2c1=O > 76.9 µM
CC(C)(C)c1[nH]nc2c1C(c1ccccc1OC(=O)N1CCOCC1)C(C#N)=C(N)O2 (centres undefined) > 76.9 µM
CCn1c(CNC(=O)c2cccs2)nnc1SCC(=O)NCCc1ccccc1 > 76.9 µM
O=C(COC(=O)c1cccc(S(=O)(=O)N2CCN(c3ccccc3)CC2)c1)NCc1ccco1 > 76.9 µM
COC(=O)Cn1c(C)c(C(C)=O)c(C(C)=O)c1C > 76.9 µM
CC(C)CC(c1nnnn1CC1CCCO1)N1CCN(c2nc3ccccc3s2)CC1 (centres undefined)
CCOCCCNC(=O)NC12CC3CC(CC(C3)C1)C2 > 76.9 µM
COc1ccc(NC(=O)CSc2nnc(-c3cccs3)n2Cc2ccco2)cc1OC > 76.9 µM
O=C(CSc1nnnn1-c1ccccc1)Nc1ccc(Cl)cn1 > 76.9 µM
NS(=O)(=O)c1ccc(CCNC2CC(=O)N(Cc3ccccc3)C2=O)cc1 (centres undefined) > 76.9 µM
O=C(CSc1ccc2nnc(-c3ccc(F)cc3)n2n1)N1CCCCC1 > 76.9 µM
CC1CCCN(c2nc3c(c(=O)n(C)c(=O)n3C)n2CCSc2nc3ccccc3o2)C1 (centres undefined) > 76.9 µM
CCOC(=O)N1CCC(NS(=O)(=O)c2ccc3c(c2)oc(=O)n3C)CC1 > 76.9 µM
Cc1cc(C)n(-c2nc(NCC(C)O)c3c4c(sc3n2)CCCC4)n1 (centres undefined) > 76.9 µM
CCC1(c2ccc(F)cc2)NC(=O)N(CC(=O)N2CCOCC2)C1=O (centres undefined) > 76.9 µM
CCn1c(SCC(=O)c2ccc(F)cc2)nnc1-c1ccoc1C > 76.9 µM
CCCCn1c(=O)n(CC(=O)Nc2c(CC)cccc2CC)c(=O)c2c1nc(CO)n2CCC > 76.9 µM
COc1ccc(S(=O)(=O)N(C)CC(=O)N2CCC(C(N)=O)CC2)cc1 > 76.9 µM
Cc1nc(SCC(=O)Nc2ccc3c(c2)OCCO3)c2oc3ccccc3c2n1 > 76.9 µM
CCn1c(SCC(=O)Nc2ccc(NC(C)=O)cc2)nnc1C1CC1 > 76.9 µM
Fc1ccc(CSc2nnc(-c3cccnc3)n2Cc2ccco2)cc1 > 76.9 µM
CC(C)(C)n1nnnc1C(c1cccnc1)N1CCN(C(=O)c2ccco2)CC1 (centres undefined) > 76.9 µM
CC(=O)Nc1ccc(N2CCN(C(=O)c3cccs3)CC2)cc1 > 76.9 µM
Cc1ccc(-c2noc(CCC(=O)Nc3ccc4c(c3)OCO4)n2)cc1 > 76.9 µM
CC(=O)Nc1cccc(NC(=O)C2CCCN2C(=O)Nc2ccc(Cl)cc2)c1 (centres undefined) > 76.9 µM
COc1cccc(-c2nn(-c3ccccc3)cc2C(=O)Nc2nccs2)c1 > 76.9 µM
CNC(=O)CCc1nc(-c2ccc(C(C)(C)C)cc2)no1 > 76.9 µM
CCOC(=O)CSc1nnc(-c2ccc(NS(=O)(=O)c3ccc(C)cc3)cc2)o1 > 76.9 µM
CCN(CC)C(=O)c1sc(NC(=O)Cc2cccs2)c(C#N)c1C > 76.9 µM
CCCS(=O)(=O)N1CCCC(C(=O)NCc2cccnc2)C1 (centres undefined) > 76.9 µM
Cc1ccc(C)c(-c2nnc(OCC(=O)Nc3cc(C)on3)c3ccccc23)c1 > 76.9 µM
COc1ccc(CCN2C(=O)C(O)=C(C(=O)c3ccco3)C2c2cccs2)cc1OC (centres undefined) > 76.9 µM
C=CCCCOc1ccc(C(=O)O)cc1 > 76.9 µM
COc1ccc(OC)c(NC(=O)Cn2c(=O)oc3ccccc32)c1 > 76.9 µM
Cc1cc(C)n(-c2nc3ccccc3c(=O)n2OCCOc2ccccc2)n1 > 76.9 µM
CCCCCCC(=O)Nc1c(O)c2ccccc2[nH]c1=O > 76.9 µM
COC(=O)c1ccc(Cl)c(NC(=O)CN(c2ccc3c(c2)OCO3)S(C)(=O)=O)c1 > 76.9 µM
Nc1nonc1C(=O)NCCNC(=O)c1cccs1 > 76.9 µM
O=C(c1ccc(Cl)cc1)C1CCN(C(=O)N2CCOCC2)CC1 > 76.9 µM
COC(=O)c1cnn(-c2ccc(C)c(C)c2)c1-n1cccc1 > 76.9 µM
CC(=O)Nc1ccc(S(=O)(=O)Nc2cccc(NC(=O)C(C)(C)C)c2)cc1 > 76.9 µM
CCCCN(CCCC)S(=O)(=O)c1ccc2oc(C(=O)N3CCOCC3)c(C)c2c1 > 76.9 µM
Cn1nc(CC(=O)NCCN2C(=O)CSC2=O)c2ccccc2c1=O > 76.9 µM
CC(C)(C)NC(=O)NC(=O)COc1ccccn1 > 76.9 µM
O=C(NCc1ccccn1)c1cnc2sccn2c1=O > 76.9 µM
Cc1nn2c(nc1=O)SCC(c1ccccc1)=N2 > 76.9 µM
CCC(C)(C)n1nnnc1C(C(C)C)N1CCN(C)CC1 (centres undefined) > 76.9 µM
COCCN1C(=O)c2ccc(C(=O)O)cc2C1=O > 76.9 µM
Cc1ccc(-c2nnc(CSc3nnc4c5c(C)c(C)sc5nc(C(C)C)n34)o2)cc1 > 76.9 µM
CCc1nnc2c3cnn(-c4ccccc4)c3ncn12 > 76.9 µM
CCOCCc1c(O)nc(SCC(=O)NCc2ccco2)[nH]c1=O > 76.9 µM
CCOCCCNC(=O)C(c1ccc(Cl)cc1)N1CCN(C(=O)c2ccco2)CC1 (centres undefined) > 76.9 µM
O=C(COc1cccc(Oc2ccccc2)c1)Nc1ncccn1 > 76.9 µM
COc1ccc(NC(=O)CCS(=O)(=O)c2ccc3c(c2)CCCN3C(C)=O)cc1 > 76.9 µM
CC(C)CCNC(=O)NC(=O)CN1C(=O)NC2(CCCCC2)C1=O > 76.9 µM
CCN(CCCNC(=O)CN(C)S(=O)(=O)c1cccc2nsnc12)c1cccc(C)c1 > 76.9 µM
Cc1cc(C)n(-c2ccc(Cl)c(C(=O)O)n2)n1 > 76.9 µM
O=C(NC1CCCC1)C1CCN(S(=O)(=O)N2CCCCC2)CC1 > 76.9 µM
O=C1CC(N2CCN(c3ccc(F)cc3)CC2)C(=O)N1Cc1ccc(N2CCCC2=O)cc1 (centres undefined) > 76.9 µM
CC1(C)C(=O)OC(c2cccs2)C(C)(C)C1=O (centres undefined) > 76.9 µM
O=C(O)c1cc(/C=N\O)ccc1OCc1ccccc1 > 76.9 µM
Cc1cc(=O)n2nc(N3CCC(C(=O)NCCC4=CCCCC4)CC3)sc2n1 > 76.9 µM
CCn1c(COc2ccccc2)nnc1SCC(=O)Nc1ccc2c(c1)OCCO2 > 76.9 µM
